Test results from patent US20090291975A1, “DUAL OPIOID PAIN THERAPY” (priority 2008, published 2009).

What was measured:
[1] = tested on: patients with chronic moderate to severe, non-cancer pain; assay: Study 1: Phase II randomized double-blind crossover, pain relief (VAS), Q8001 vs morphine; type: in vivo, human; details: at baseline (while receiving prior opioid therapy)
[2] = tested on: patients with chronic moderate to severe, non-cancer pain; assay: Study 1: opioid-related adverse events (nausea, vomiting, constipation, drowsiness); type: in vivo, human
[3] = tested on: patients with chronic moderate to severe, non-cancer pain; assay: Study 2: opioid-related adverse events (nausea, vomiting, constipation, drowsiness); type: in vivo, human
[4] = tested on: patients with chronic moderate to severe, non-cancer pain; assay: Study 2: Phase II randomized double-blind crossover, pain relief (VAS), Q8002 vs morphine; details: at baseline (while receiving prior opioid therapy)

Structure (SMILES): CN1CC[C@]23c4c5ccc(O)c4O[C@H]2[C@@H](O)C=C[C@H]3[C@H]1C5 [Morphine, morphine]
- PAIN SCORE (VAS) At BASELINE [1]: 4.5
- Constipation, No, rate [2]: (43%)
- Constipation, Yes, incidence rate [2]: (57%)
- Drowsiness, No, rate [2]: (29%)
- Drowsiness, Yes, incidence rate [2]: (71%)
- Nausea, No, rate [2]: (43%)
- Nausea, Yes, incidence rate [2]: (57%)
- Vomiting, No, rate [2]: (90%)
- Vomiting, Yes, incidence rate [2]: (10%)
- Constipation, Yes (number of patients) ([2]; graded score of 1 or higher): 12
- Drowsiness, Yes (number of patients) ([2]; graded score of 1 or higher): 15
- Nausea, Yes (number of patients) ([2]; graded score of 1 or higher): 12
- Vomiting, Yes (number of patients) ([2]; graded score of 1 or higher): 2
- Constipation, No (number of patients) ([2]; score 0): 9
- Drowsiness, No (number of patients) ([2]; score 0): 6
- Nausea, No (number of patients) ([2]; score 0): 9
- Vomiting, No (number of patients) ([2]; score 0): 19
- Constipation, No, rate [3]: (35%)
- Constipation, Yes, incidence rate [3]: (65%)
- Drowsiness, No, rate [3]: (57%)
- Drowsiness, Yes, incidence rate [3]: (43%)
- Nausea, No, rate [3]: (48%)
- Nausea, Yes, incidence rate [3]: (52%)
- Vomiting, No, rate [3]: (87%)
- Vomiting, Yes, incidence rate [3]: (13%)
- Constipation, Yes (number of patients) ([3]; graded score of 1 or higher): 15
- Drowsiness, Yes (number of patients) ([3]; graded score of 1 or higher): 10
- Vomiting, Yes (number of patients) ([3]; graded score of 1 or higher): 3
- Constipation, No (number of patients) ([3]; score 0): 8
- Drowsiness, No (number of patients) ([3]; score 0): 13
- Nausea, No (number of patients) ([3]; score 0): 11
- Vomiting, No (number of patients) ([3]; score 0): 20
- PAIN SCORE (VAS) At BASELINE [4]: 4.8
